Measured values from the supplement of paper PMC10126150.
Sequences with one replicate were seen in a single cluster, so their values are uncertain.

tested on: ATP; experiment: switch fluorescence ratio, 500 uM ATP over buffer (Cy3 cluster intensity, sum of 5 cycles each) (fold (ratio)); higher = stronger signal-on switching upon ATP binding; sequences stand for … in TCGTCGGCAGCGTCAGATGTGTATAAGAGACAGTTTTTTTTTTTTTTTTTTTTTTTTT…TC; details: aptamer strand: ATP DNA aptamer (quencher-CACCTGGGGGAGTATTGCGGAGGAAGG + anchor), 100 nM annealed; ATP concentration: 500 uM; one replicate
Procedure, shortened: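 Exposure to 500 uM ATP lasted 15 min at 22 °C before imaging, and a selection-buffer image was taken beforehand, for Cy3-labelled switching-strand clusters on a modified Illumina MiSeq flow-cell annealed to 100 nM quencher-labelled ATP aptamer. Five buffer/ATP cycles were run with NaOH stripping and re-annealing between them. The fluorescence ratio per cluster is summed target-cycle over summed buffer-cycle Cy3 intensity, averaged per switch-domain sequence. Clusters outside 100-1000 RFU were excluded.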

Sequence | switch fluorescence ratio
CGAACTATGG | 1
CGAACTCGCC | 1.1
CGAAGACTAC | 2.33
CGAAGAGCAA | 1.72
CGAAGATAAT | 0.974
CGAAGCAGAT | 4.88
CGAAGGAAT | 1.11
CGAAGGCATG | 1.05
CGAAGGTCTC | 0.996
CGAAGTAGCT | 1.03
CGAAGTATAT | 1.16
CGAAGTATTC | 1.25
CGAAGTGCGC | 1.08
CGAAGTGGAT | 0.97
CGAAGTGTGC | 1.47
CGAATACAGA | 1.05
CGAATAGAAC | 1.02
CGAATAGGTG | 1.1
CGAATGCGGC | 1.07
CGAATGTGCG | 1.02
CGAATTGGCA | 1.02
CGAATTGGTT | 0.967
CGAATTTCTA | 1.01
CGACAATCTA | 1.16
CGACACTGCG | 1.02

Sequence | switch fluorescence ratio
CGACAGACTC | 1.31
CGACCCAGAG | 1.02
CGACCCTCCT | 1.07
CGACCGCGGA | 1.18
CGACCGGAAT | 3.97
CGACCTCGG | 1.02
CGACGCGCGC | 2.25
CGACGTAAAG | 1.12
CGACGTAACT | 1.43
CGACGTTTTG | 0.992
CGACTGCTGC | 1.38
CGACTTAGCT | 1.03
CGAGAAATCT | 1.05
CGAGAAGCCA | 0.957
CGAGAAGGAT | 1.04
CGAGACCGTT | 1.01
CGAGAGAATG | 1.03
CGAGAGACGA | 1.05
CGAGAGAGAT | 1
CGAGAGAGTA | 0.975
CGAGAGATCA | 1.02
CGAGATCCTT | 1.03
CGAGATGCAG | 0.911
CGAGATTAAG | 1.02
CGAGCAAGGT | 1.89

Sequence | switch fluorescence ratio
CGAGCCATTT | 1.02
CGAGCGAATT | 1.06
CGAGCGCCGA | 1.1
CGAGCGGGTG | 1.1
CGAGCGGTA | 1.03
CGAGCTAGGT | 1.04
CGAGCTGGAC | 1.91
CGAGCTGGG | 0.994
CGAGGAGACT | 1
CGAGGCCCGC | 1.09
CGAGGGATG | 0.927
CGAGGGTATC | 1.06
CGAGGGTGTG | 1.01
CGAGGTATAC | 3.44
CGAGGTCTCT | 1.02
CGAGGTTGGT | 0.993
CGAGGTTTGC | 1.01
CGAGTAAGCT | 1.03
CGAGTCACTC | 1.03
CGAGTCAGGT | 1.03
CGAGTGTCAA | 1.07
CGAGTGTCTG | 1.02
CGAGTTACTC | 1.05
CGATAACAGC | 0.997
CGATAAGGCA | 1.02

Sequence | switch fluorescence ratio
CGATAATAGA | 0.99
CGATACCGGA | 1.02
CGATACGAGT | 1.06
CGATACTGAG | 1.02
CGATAGCCT | 2.29
CGATATCCTT | 1.03
CGATATCTTC | 1.01
CGATCAAGGG | 1.02
CGATCAATTT | 1.01
CGATCACGCA | 1.1
CGATCATTAT | 0.994
CGATCCAACG | 0.993
CGATCCAGTA | 1.01
CGATCCTCAG | 1.03
CGATCCTCTC | 0.994
CGATCGCTCT | 1.3
CGATCGGACA | 1.03
CGATCGGGTG | 1.02
CGATCTTCGG | 1.01
CGATGACGGG | 0.949
CGATGAGGCT | 1.02
CGATGCTCGG | 0.955
CGATGGGCTC | 1.02
CGATGGGTCC | 1.08
CGATGTCATA | 1

Sequence | switch fluorescence ratio
CGATGTCCGT | 1.2
CGATGTGAAG | 1.01
CGATTATGAT | 0.992
CGATTCCCGT | 1.04
CGATTGGAA | 1.03
CGATTTTGCT | 0.986
CGCAACACAT | 2.74
CGCAACCCTT | 2.06
CGCAACGGGG | 1.24
CGCAAGCCCT | 2.32
CGCACACGGA | 1.17
CGCACAGCGA | 1.04
CGCACCGCGT | 0.963
CGCACCTTGC | 1.39
CGCAGAGGGC | 1.08
CGCAGATGGA | 1.01
CGCAGCGGCG | 1.01
CGCAGCTGGA | 1.1
CGCAGGAGAT | 1.01
CGCAGGAGGC | 1.1
CGCAGGCGAT | 1.05
CGCAGTACTG | 3.11
CGCAGTGCCC | 1.93
CGCATAAAAA | 1.06
CGCATAACAA | 1.22

Sequence | switch fluorescence ratio
CGCATCATGA | 0.993
CGCATGCAGT | 1.05
CGCATGCCAT | 0.979
CGCATTCAAG | 1.1
CGCCAATCAA | 1.1
CGCCACACTT | 1.11
CGCCACCGAC | 1.55
CGCCAGCAGT | 3.02
CGCCATTCCG | 1.06
CGCCCAAGAA | 1.33
CGCCCATGCG | 1
CGCCCCGATC | 1.12
CGCCCGCCCG | 1.11
CGCCCGTCCT | 0.989
CGCCCTCCAT | 1.14
CGCCCTGGGT | 1.35
CGCCCTTCTG | 0.981
CGCCGAAAGA | 2.2
CGCCGAGTTA | 1.01
CGCCGCGGAG | 1.33
CGCCGGGCTA | 0.978
CGCCGTAATA | 4.47
CGCCGTAGTC | 0.997
CGCCTATTAG | 1.07
CGCCTCTCGA | 1.02

Sequence | switch fluorescence ratio
CGCCTGGGTC | 1
CGCGAAAAGT | 0.963
CGCGAGGAGC | 1.07
CGCGATATGC | 2.85
CGCGCAAGTG | 1.06
CGCGCACAAC | 3.32
CGCGCATCCG | 1.05
CGCGCGCCAT | 1.04
CGCGCTCCT | 1.65
CGCGGATGAG | 1.01
CGCGGCATCT | 1.08
CGCGGCGGGG | 1.05
CGCGGCTCGT | 0.972
CGCGGGCGGT | 1.03
CGCGGGTAG | 1.02
CGCGGGTCAC | 1.1
CGCGGTCCTC | 1.22
CGCGGTCTCG | 1.09
CGCGGTGGTT | 0.983
CGCGGTGTAG | 0.989
CGCGGTTCAG | 1.08
CGCGTAAATA | 0.998
CGCGTAGA | 1.04
CGCGTAGTGG | 1.02
CGCGTCCGAT | 1.02

Sequence | switch fluorescence ratio
CGCGTCGGTT | 1.06
CGCGTGCTGA | 1.03
CGCGTGGTCT | 0.998
CGCGTGTGTC | 1
CGCGTGTTCG | 1.02
CGCGTGTTGG | 0.968
CGCGTTAAAC | 1.16
CGCGTTAATC | 1.08
CGCTACATGT | 1.08
CGCTATGCCT | 0.989
CGCTCAAGCG | 0.979
CGCTCCATAT | 1.13
CGCTCCCAAC | 3.9
CGCTCCCGAG | 1.06
CGCTCCGTAT | 1.51
CGCTCCTCCG | 5.54
CGCTCCTTAT | 1
CGCTCTACTC | 4.64
CGCTCTGAT | 0.931
CGCTCTTTCA | 0.979
CGCTGACTTT | 1.03
CGCTGAGAGC | 1.04
CGCTGCACCG | 0.99
CGCTGCTCTG | 1.02
CGCTGGCTAG | 0.999
